# The supplement of paper PMC8728848
# Some of the results follow.
# B1: mCC1-Hexahis-Precomplexed (Mus musculus), P31809 (protein)
# chain: MELASAHLHKGQVPWGGLLLTASLLASWSPATTAEVTIEAVPPQVAEDNNVLLLVHNLPLALGAFAWYKGNTTAIDKEIARFVPNSNMNFTGQAYSGREIIYSNGSLLFQMITMKDMGVYTLDMTDENYRRTQATVRFHVHPILLKPNITSNNSNPVEGDDSVSLTCDSYTDPDNINYLWSRNGESLSEGDRLKLSEGNRTLTLLNVTRNDTGPYVCETRNPVSVNRSDPFSLNIIYGPDTPIISPSDIYLHPGSNLNLSCHAASNPPAQYFWLINEKPHASSQELFIPNITTNNSGTYTCFVNNSVTGLSRTTVKNITVLEPVTQPFLQVTNTTVKELDSVTLTCLSNDIGANIQWLFNSQSLQLTERMTLSQNNSILRIDPIKREDAGEYQCEISNPVSVRRSNSIKLDIIFDPTQGGLSDGHHHHHH
# Columns and labels:
# Assay in all cases: glycan array binding signal (z-score within array); higher = stronger binding
# Conditions in all cases: glycan notation: IUPAC condensed, linker removed
# [1] = molecular target: Fuc(a1-2)[GalNAc(a1-3)]Gal(b1-3)GlcNAc(b1-6)GalNAc
# Outline: (§1)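 Arrays were curated from the Consortium for Functional Glycomics database, 3228 in total, and kept only where the protein sequence was available. Binding is expressed as a within-array Z-score. This score was averaged across arrays of the same protein sequence at different concentrations or buffers and across linkers, and negative values can be read as non-binding.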
# [2] = molecular target: Fuc(a1-2)[GalNAc(a1-3)]Gal(b1-4)Glc
# Outline: as §1
# [3] = molecular target: Fuc(a1-2)[GalNAc(a1-3)]Gal(b1-4)GlcNAc
# Outline: as §1
# [4] = molecular target: Fuc(a1-2)[GalNAc(a1-3)]Gal(b1-4)GlcNAc(b1-2)Man
# Outline: as §1
# [5] = molecular target: Fuc(a1-2)[GalNAc(a1-3)]Gal(b1-4)GlcNAc(b1-2)Man(a1-3)[Fuc(a1-2)[GalNAc(a1-3)]Gal(b1-4)GlcNAc(b1-2)Man(a1-6)]Man(b1-4)GlcNAc(b1-4)GlcNAc
# Outline: as §1
# [6] = molecular target: Fuc(a1-2)[GalNAc(a1-3)]Gal(b1-4)GlcNAc(b1-2)Man(a1-3)[Fuc(a1-2)[GalNAc(a1-3)]Gal(b1-4)GlcNAc(b1-2)Man(a1-6)]Man(b1-4)GlcNAc(b1-4)[Fuc(a1-6)]GlcNAc
# Outline: as §1
# [7] = molecular target: Fuc(a1-2)[GalNAc(a1-3)]Gal(b1-4)GlcNAc(b1-3)Gal(b1-4)GlcNAc
# Outline: as §1
# [8] = molecular target: Fuc(a1-2)[GalNAc(a1-3)]Gal(b1-4)GlcNAc(b1-3)Gal(b1-4)GlcNAc(b1-3)Gal(b1-4)GlcNAc
# Outline: as §1
# [9] = molecular target: Fuc(a1-2)[GalNAc(a1-3)]Gal(b1-4)GlcNAc(b1-3)GalNAc
# Outline: as §1
# [10] = molecular target: Fuc(a1-2)[GalNAc(a1-3)]Gal(b1-4)GlcNAc(b1-3)[Fuc(a1-2)[GalNAc(a1-3)]Gal(b1-4)GlcNAc(b1-6)]GalNAc
# Outline: as §1
# [11] = molecular target: Fuc(a1-2)[GalNAc(a1-3)]Gal(b1-4)GlcNAc(b1-6)GalNAc
# Outline: as §1
# [12] = molecular target: Fuc(a1-2)[GalNAc(a1-3)]Gal(b1-4)[Fuc(a1-3)]GlcNAc
# Outline: as §1
# [13] = molecular target: Fuc(a1-2)[GalNAc(a1-3)]Gal(b1-4)[Fuc(a1-3)]GlcNAc(b1-3)GalNAc
# Outline: as §1
# [14] = molecular target: Fuc(a1-2)[GalNAc(a1-4)]Gal(b1-4)GlcNAc
# Outline: as §1
# [15] = molecular target: Fuc(a1-2)[GalNAc(b1-3)]Gal
# Outline: as §1
# Fuc(a1-3)GlcNAc = molecular target: Fuc(a1-3)GlcNAc
# Outline: as §1
# [16] = molecular target: Fuc(a1-3)[Gal(b1-4)]Glc6S
# Outline: as §1
# [17] = molecular target: Fuc(a1-3)[Gal(b1-4)]GlcNAc
# Outline: as §1
# [18] = molecular target: Fuc(a1-3)[Gal(b1-4)]GlcNAc(b1-2)Man
# Outline: as §1
# [19] = molecular target: Fuc(a1-3)[Gal(b1-4)]GlcNAc(b1-2)Man(a1-3)[Fuc(a1-3)[Gal(b1-4)]GlcNAc(b1-2)Man(a1-6)]Man(b1-4)GlcNAc(b1-4)GlcNAc
# Outline: as §1
# [20] = molecular target: Fuc(a1-3)[Gal(b1-4)]GlcNAc(b1-2)Man(a1-3)[Fuc(a1-3)[Gal(b1-4)]GlcNAc(b1-2)Man(a1-6)]Man(b1-4)GlcNAc(b1-4)[Fuc(a1-6)]GlcNAc
# Outline: as §1
# [21] = molecular target: Fuc(a1-3)[Gal(b1-4)]GlcNAc(b1-3)Gal(b1-3)[Fuc(a1-4)]GlcNAc
# Outline: as §1
# [22] = molecular target: Fuc(a1-3)[Gal(b1-4)]GlcNAc(b1-3)GalNAc
# Outline: as §1
# [23] = molecular target: Fuc(a1-3)[Gal(b1-4)]GlcNAc(b1-4)Gal(b1-4)[Fuc(a1-3)]GlcNAc
# Outline: as §1
# [24] = molecular target: Fuc(a1-3)[Gal(b1-4)]GlcNAc(b1-4)Gal(b1-4)[Fuc(a1-3)]GlcNAc(b1-4)Gal(b1-4)[Fuc(a1-3)]GlcNAc
# Outline: as §1
# [25] = molecular target: Fuc(a1-3)[Gal(b1-4)]GlcNAc(b1-6)GalNAc
# Outline: as §1
# [26] = molecular target: Fuc(a1-3)[Gal(b1-4)]GlcNAc(b1-6)[Gal(b1-3)GlcNAc(b1-3)]Gal(b1-4)Glc
# Outline: as §1
# [27] = molecular target: Fuc(a1-3)[Gal(b1-4)]GlcNAc6S
# Outline: as §1
# [28] = molecular target: Fuc(a1-3)[Gal3S(b1-4)]Glc
# Outline: as §1
# [29] = molecular target: Fuc(a1-3)[Gal3S(b1-4)]GlcNAc
# Outline: as §1
# [30] = molecular target: Fuc(a1-3)[Gal3S(b1-4)]GlcNAc6S
# Outline: as §1
# [31] = molecular target: Fuc(a1-3)[GalNAc(b1-4)]GlcNAc
# Outline: as §1
# [32] = molecular target: Fuc(a1-3)[GalNAc(b1-4)]GlcNAc6S
# Outline: as §1
# Fuc(a1-4)GlcNAc = molecular target: Fuc(a1-4)GlcNAc
# Outline: as §1
# Fuc(b1-3)GlcNAc = molecular target: Fuc(b1-3)GlcNAc
# Outline: as §1
# Gal(a1-2)Gal = molecular target: Gal(a1-2)Gal
# Outline: as §1
# Gal(a1-3)Gal = molecular target: Gal(a1-3)Gal
# Outline: as §1
binder,measurement,setting,value
B1,glycan array binding signal (z-score),[1],-0.269
same,glycan array binding signal (z-score),[2],-0.112
same,glycan array binding signal (z-score),[3],-0.219
same,glycan array binding signal (z-score),[4],-0.158
same,glycan array binding signal (z-score),[5],-0.041
same,glycan array binding signal (z-score),[6],-0.068
same,glycan array binding signal (z-score),[7],-0.289
same,glycan array binding signal (z-score),[8],1.36
same,glycan array binding signal (z-score),[9],-0.163
same,glycan array binding signal (z-score),[10],-0.12
same,glycan array binding signal (z-score),[11],-0.236
same,glycan array binding signal (z-score),[12],0.277
same,glycan array binding signal (z-score),[13],-0.07
same,glycan array binding signal (z-score),[14],-0.202
same,glycan array binding signal (z-score),[15],-0.122
same,glycan array binding signal (z-score),Fuc(a1-3)GlcNAc,-0.297
same,glycan array binding signal (z-score),[16],-0.143
same,glycan array binding signal (z-score),[17],-0.206
same,glycan array binding signal (z-score),[18],-0.272
same,glycan array binding signal (z-score),[19],-0.155
same,glycan array binding signal (z-score),[20],-0.138
same,glycan array binding signal (z-score),[21],0.197
same,glycan array binding signal (z-score),[22],-0.171
same,glycan array binding signal (z-score),[23],-0.175
same,glycan array binding signal (z-score),[24],-0.094
same,glycan array binding signal (z-score),[25],-0.024
same,glycan array binding signal (z-score),[26],-0.188
same,glycan array binding signal (z-score),[27],-0.122
same,glycan array binding signal (z-score),[28],-0.168
same,glycan array binding signal (z-score),[29],-0.034
same,glycan array binding signal (z-score),[30],-0.213
same,glycan array binding signal (z-score),[31],-0.088
same,glycan array binding signal (z-score),[32],-0.231
same,glycan array binding signal (z-score),Fuc(a1-4)GlcNAc,-0.27
same,glycan array binding signal (z-score),Fuc(b1-3)GlcNAc,-0.183
same,glycan array binding signal (z-score),Gal(a1-2)Gal,-0.219
same,glycan array binding signal (z-score),Gal(a1-3)Gal,-0.022
